# Test results: paper PMC11992174, “Structural Insights into Bortezomib-Induced Activation of the Caseinolytic Chaperone-Protease System in Mycobacterium tuberculosis” (Nature Communications, 2025)
# Target: the molecule itself
# Assay: cryo-EM structure
protein,measurement,value
Mycobacterium tuberculosis caseinolytic protease P2 (MtbClpP2) (enzyme) not shown,stoichiometry N,7
